Test results reported in US20140044674A1 (Hoffmann-La Roche, published 2014).
Like-named read-outs stand apart in the source and are kept apart here.

T1: IL-10R on freshly isolated human blood monocytes (human, UniProt Q13651 22-578; Q08334 20-325)
T1 sequence (looked up) 1: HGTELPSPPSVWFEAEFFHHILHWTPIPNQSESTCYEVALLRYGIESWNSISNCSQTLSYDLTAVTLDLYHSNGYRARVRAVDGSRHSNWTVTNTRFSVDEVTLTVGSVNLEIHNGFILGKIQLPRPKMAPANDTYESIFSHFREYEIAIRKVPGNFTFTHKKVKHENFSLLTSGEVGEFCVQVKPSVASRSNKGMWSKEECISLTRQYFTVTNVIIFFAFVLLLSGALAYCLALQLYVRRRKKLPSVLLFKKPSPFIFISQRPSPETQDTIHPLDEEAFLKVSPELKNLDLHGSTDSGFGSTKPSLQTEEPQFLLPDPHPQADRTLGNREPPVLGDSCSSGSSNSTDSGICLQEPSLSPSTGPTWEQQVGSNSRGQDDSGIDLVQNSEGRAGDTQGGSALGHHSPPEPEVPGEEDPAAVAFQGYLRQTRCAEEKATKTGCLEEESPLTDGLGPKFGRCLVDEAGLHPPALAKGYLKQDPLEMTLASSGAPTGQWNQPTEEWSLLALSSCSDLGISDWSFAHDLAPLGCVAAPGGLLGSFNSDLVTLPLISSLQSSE
T1 sequence (looked up) 2: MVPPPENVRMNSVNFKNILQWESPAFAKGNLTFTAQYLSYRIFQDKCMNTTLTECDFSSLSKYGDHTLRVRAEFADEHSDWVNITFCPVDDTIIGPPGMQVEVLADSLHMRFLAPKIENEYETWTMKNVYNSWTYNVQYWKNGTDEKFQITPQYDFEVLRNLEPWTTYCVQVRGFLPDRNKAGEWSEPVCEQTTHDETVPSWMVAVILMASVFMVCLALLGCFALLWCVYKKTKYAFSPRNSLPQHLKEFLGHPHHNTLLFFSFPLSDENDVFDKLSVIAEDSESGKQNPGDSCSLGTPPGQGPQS


Tests used:
[1] = target: T2, recombinant human FAP coated on cell culture plates (human, UniProt Q12884 26-760, limits assumed); assay: cell-based or functional assay
[2] = target: T3, His-tagged human FAP ECD (human, UniProt Q12884 27-760); assay: SPR ProteOn XPR36, 25 C; His-tagged FAP captured by anti-penta-His IgG, construct as analyte
T3 construct: also called hu FAP
Procedure: (§1) To determine the affinities to FAP, the target protein was captured via its H6-tag by a covalently immobilized anti-H6 antibody (FIG. 9A). Briefly, anti-penta His IgG (Qiagen #34660, mouse monoclonal antibody) was immobilized at high levels (up to ˜5.000 RU) at 30 μ/min onto separate vertical channels of a GLM chip by simultaneously activating all channels for 5 min with a freshly prepared mixture of 1-ethyl-3-(3-dimethylaminopropyl)-carboiimide (EDC) and N-hydroxysuccinimide (sNHS), subsequently injecting 15 μg/ml anti-penta His IgG in 10 mM sodium acetate buffer pH 4.5 for 180 sec. Channels were blocked using a 5-min injection of ethanolamine. H6-tagged FAP from different species (see SEQ ID NOs 81, 83 and 85) was captured from a 5 μg/ml dilution in running buffer along the vertical channels for 60 s at 30 μl/min to achieve ligand densities between ˜250 and 600 RU. In a one-shot kinetic assay set-up (OSK), antibody-IL-10 fusion constructs were injected as analytes along the horizontal channels in a five-fold dilution series ranging from 50 to 0.08 nM at 100 μl/min. Association phase was recorded for 180 s, dissociation phase for 600 s. […] Running buffer (PBST) was injected along the sixth channel to provide an “in-line” blank for referencing. Association rates (kₒₙ) and dissociation rates (koff) were calculated using a simple 1:1 Langmuir binding model (ProteOn Manager software version 2.1) by simultaneously fitting the association and dissociation sensorgrams. The equilibrium dissociation constant (KD) was calculated as the ratio koff/kₒₙ.

[3] = target: T4, His-tagged mouse FAP ECD (mouse, UniProt P97321 27-761); assay: as above
T4 construct: also called mu FAP; murine FAP
Procedure: as §1

[4] = target: T5, His-tagged cynomolgus FAP ECD (cynomolgus, UniProt Q12884 27-760 (human entry)); assay: as above
T5 construct: also called cyno FAP
Procedure: as §1

[5] = target: T2, recombinant human FAP coated on cell …; assay: cell-based or functional assay; remark: listed apart in the source
[6] = target: T1, IL-10R on freshly isolated human blood …; assay: cell-based or functional assay
[7] = target: T4, His-tagged mouse FAP ECD; assay: SPR ProteOn XPR36, 25 C; His-tagged FAP captured by anti-penta-His IgG, construct as analyte; KD calculated with the estimated koff
Procedure: as §1

[8] = target: T4, His-tagged mouse FAP ECD; assay: SPR ProteOn XPR36, 25 C; His-tagged FAP captured by anti-penta-His IgG, construct as analyte; off-rate could not be fitted, estimate used
Procedure: as §1

| EC50, suppression of hIL-6 production by monocytes, set-up (b) (immobilized) [1] [nM] | Kd [2] [nM] | koff [2] [s⁻¹] | kon [2] [M⁻¹ s⁻¹] | Kd [3] [pM] | koff [3] [s⁻¹] | kon [3] [M⁻¹ s⁻¹] | Kd [4] [nM] | koff [4] [s⁻¹] | kon [4] [M⁻¹ s⁻¹] | EC50, suppression of hIL-1β production by monocytes, set-up (b) (immobilized) [5] [nM] | EC50, suppression of hIL-6 production by monocytes, set-up (b) (immobilized) [5] [nM] | EC50, suppression of hTNFα production by monocytes, set-up (b) (immobilized) [5] [nM] | EC50 [nM] pSTAT3 induction, primary monocytes, Donor 1 [6] [nM] | EC50 [nM] pSTAT3 induction, primary monocytes, Donor 2 [6] [nM] | EC50 [nM] pSTAT3 induction, primary monocytes, Donor 3 [6] [nM] | Kd [7] [pM] | koff [8] [s⁻¹] | Binder |
| --- | --- | --- | --- | --- | --- | --- | --- | --- | --- | --- | --- | --- | --- | --- | --- | --- | --- | --- |
| 0.039 | 0.0251 | 7.76e-05 | 3.09e+06 | 6.57 | 1.12e-05 | 1.7e+06 | 0.0521 | 0.00018 | 3.45e+06 |  |  |  |  |  |  |  |  | 4G8 IgG-(IL-10M1)2 (other, also called IgG-(IL-10M1)2 (clone 4G8)) heavy: [about 100 residues omitted here][about 120 residues omitted here][human IgG1 Fc with changes omitted here]GGGGSGGGGSGGGGSSPGQGTQSENSCTHFPGNLPNMLRDLRDAFSRVKTFFQMKDQLDNLLLKESLLEDFKGYLGCQALSEMIQFYLEEVMPQAENQDPDIKAHVNSLGENLKTLRLRLRRCHRFLPCENGGGSGGKSKAVEQVKNAFNKLQEKGIYKAMSEFDIFINYIEAYMTMKIRN light: EIVLTQSPGTLSLSPGERATLSCRASQSVSRSYLAWYQQKPGQAPRLLIIGASTRATGIPDRFSGSGSGTDFTLTISRLEPEDFAVYYCQQGQVIPPTFGQGTKVEIKRTVAAPSVFIFPPSDEQLKSGTASVVCLLNNFYPREAKVQWKVDNALQSGNSQESVTEQDSKDSTYSLSSTLTLSKADYEKHKVYACEVTHQGLSSPVTKSFNRGEC |
|  | 0.0543 | 0.000218 | 4.01e+06 |  |  | 1.8e+06 | 0.0544 | 0.000219 | 4.03e+06 | 0.1 | 0.2 | 0.03 | 0.557 | 0.43 | 0.116 | 5.56 | ~1e-05 | 4G8 Fab-scIL-10-Fab (other, Tandem Fab fragments with a single chain IL-10 dimer between them; also called Fab-scIL-10-Fab (clone 4G8)) heavy: [about 100 residues omitted here]GWLGNFDYWGQGTLVTVSSASTKGPSVFPLAPSSKSTSGGTAALGCLVKDYFPEPVTVSWNSGALTSGVHTFPAVLQSSGLYSLSSVVTVPSSSLGTQTYICNVNHKPSNTKVDKKVEPKSCDGGGGSGGGGSGGGGSSPGQGTQSENSCTHFPGNLPNMLRDLRDAFSRVKTFFQMKDQLDNLLLKESLLEDFKGYLGCQALSEMIQFYLEEVMPQAENQDPDIKAHVNSLGENLKTLRLRLRRCHRFLPCENKSKAVEQVKNAFNKLQEKGIYKAMSEFDIFINYIEAYMTMKIRNGGGGSGGGGSGGGGSGGGGSSPGQGTQSENSCTHFPGNLPNMLRDLRDAFSRVKTFFQMKDQLDNLLLKESLLEDFKGYLGCQALSEMIQFYLEEVMPQAENQDPDIKAHVNSLGENLKTLRLRLRRCHRFLPCENKSKAVEQVKNAFNKLQEKGIYKAMSEFDIFINYIEAYMTMKIRNGGGGSGGGGSGGGGS[about 100 residues omitted here][about 120 residues omitted here] light: EIVLTQSPGTLSLSPGERATLSCRASQSVSRSYLAWYQQKPGQAPRLLIIGASTRATGIPDRFSGSGSGTDFTLTISRLEPEDFAVYYCQQGQVIPPTFGQGTKVEIKRTVAAPSVFIFPPSDEQLKSGTASVVCLLNNFYPREAKVQWKVDNALQSGNSQESVTEQDSKDSTYSLSSTLTLSKADYEKHKVYACEVTHQGLSSPVTKSFNRGEC |
